The supplement of paper PMC12217912
Some of the results follow. The full chains were built here from the parent and the listed change. Values near 0.05 are background.

B1: TEV protease; numbered along this chain (parent)
chain: MGESLFKGPRDYNPISSSICHLTNESDGHTTSLYGIGFGPFIITNKHLFRRNNGTLVVQSLHGVFKVKDTTTLQQHLVDGRDMIIIRMPKDFPPFPQKLKFREPQREERICLVTTNFQTKSMSSMVSDTSCTFPSGDGIFWKHWIQTKDGQCGSPLVSTRDGFIVGIHSASNFTNTNNYFTSVPKNFMELLTNQEAQQWVSGWRLNADSVLWGGHKVFMVKPEEPFQPVKEATQL

Variants of: B1
Assay: raw area under fraction-flipped curve 0-4 h after induction (AUC4h, not background-subtracted), DNA-recorder readout of cleavage of the substrate (dimensionless); higher = more cleavage of the substrate by the protease variant
Conditions: temperature: 34 °C; time window: 0-4 h after rhamnose induction
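Also: Bxb1 expression induced with 0.2% (w/v) L-rhamnose at OD600 near 0.5, cultures sampled hourly, flipped fraction per protease–substrate barcode pair counted by paired-end Illumina sequencing.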

Variant	area with substrate ENLYDQS	area with substrate ENLYEQS	area with substrate ENLYGQS	area with substrate ENLYIQS	area with substrate ENLYKQS	area with substrate ENLYLQS	area with substrate ENLYNQS	area with substrate ENLYPQS	area with substrate ENLYQQS	area with substrate ENLYSQS	area with substrate ENLYWQS	area with substrate ENLYHQS	area with substrate ENLYRQS	area with substrate ENLYTQS	area with substrate ENLYVQS	area with substrate ENLYYQS	area with substrate ENLYMQS
MGESLFKGPRDYNPISSSICHLTNESDGHTTSLYGIGFGPFIITNKHLFRRNNGTLVVQSLHGVFKVKDTTTLQQHLVDGRDMIIIRMPKDFPPFPQKLKFREPQREERICSVTTNFQTKSMSSMVSDTSCTFPSGDGIFWKHWIQTKDGQCGSPLVSTRDGFIVGIHSASNFTNTNNYFTSVPKNFMELLTNQEAQQWVSGWRLNADSVLWGGHKVFMVKPEEPFQPVKEATQL [L112S]	0.0597	0.0527	0.0698	0.101	0.0639	0.136	0.055	0.0794	0.0565	0.0644	0.0599	–	–	–	–	–	–
MGESLFKGPRDYNPISSSICHLTNESDGHTTSLYGIGFGPFIITNKHLFRRNNGTLVVQSLHGVFKVKDTTTLQQHLVDGRDMIIIRMPKDFPPFYQKLKFREPQREERICLVTTNFQTKSMSSMVSDTSCTFPSGDGIFWKHWIQTKDGQCGSPLVSTRDGFIVGIHSASNFTNTNNYFTSVPKNFMELLTNQEAQQWVSGWRLNADSVLWGGHKVFMVKPEEPFQPVKEATQL [P96Y]	0.0522	–	–	–	0.0197	0.12	–	–	–	–	0.045	0.0644	0.0587	0.0743	0.13	0.0602	–
MGESLFKGPRDYNPISSSICHLTNESDGHTTSLYGIGFGPFIITNKHLFRRNNGTLVVQSLHGVFKVKDTTTLQQHLVDGRDMIIIRMPKDFPPFPQKLKFREPQREERICLVTTNFQTKSMSSMVSDTSCTFPSGDGIFWKHWIQTKDGQCGSPLVSTRDGFIVGIHSASNFTNTNNYFTSVPKNFMELLTNQEAQQWISGWRLNADSVLWGGHKVFMVKPEEPFQPVKEATQL [V200I]	0.0518	–	–	–	–	–	–	0.0617	–	–	0.0822	–	0.0944	–	–	–	0.055
MGESLFKGPRDYNPISSSICHLTNESDGHTTSLYGIGFGPFIITNKHLFRRNNGTLVVQSLHGVFKVKDTTTLQQHLVDGRDMIIIRMPKDFPPFPQKLKFREPQREERICLVTTNFQTKSMSSMVSDTSCTFPSGDGIFWKHWIQTKDGQCGSPLVSTRDGFIVGIHSASNFTNTNNYFTSVPKNFMELLTNQEAQQWWSGWRLNADSVLWGGHKVFMVKPEEPFQPVKEATQL [V200W]	0.0504	–	–	0.0575	–	–	0.0807	–	–	0.0866	–	0.0602	0.0629	–	–	–	0.0534
MGESLFKGPRDYNPISSSICHLTNESDGHTTSLYGIGFGPFIITNKHLFRRNNGTLVVQSLHGVFKVKDTTTLQQHLVDGRDMIIIRMPKDFPPFPQKLKFREPQREERICLVTTNFQTFSMSSMVSDTSCTFPSGDGIFWKHWIQTKDGQCGSPLVSTRDGFIVGIHSASNFTNTNNYFTSVPKNFMELLTNQEAQQWVSGWRLNADSVLWGGHKVFMVKPEEPFQPVKEATQL [K120F]	0.0687	0.0577	–	–	0.0596	–	0.0667	0.0751	–	0.0804	0.0665	–	–	–	–	–	–
MGESLFKGPRDYNPISSSICHLTDESDGHTTSLYGIGFGPFIITNKHLFRRNNGTLVVQSLHGVFKVKDTTTLQQHLVDGRDMIIIRMPKDFPPFPQKLKFREPQREERICLVTTNFQTKSMSSMVSDTSCTFPSGDGIFWKHWIQTKDGQCGSPLVSTRDGFIVGIHSASNFTNTNNYFTSVPKNFMELLTNQEAQQWVSGWRLNADSVLWGGHKVFMVKPEEPFQPVKEATQL [N24D]	0.0589	0.0603	0.0523	0.086	0.0346	0.054	0.0644	0.0268	0.0605	0.0621	0.051	0.0625	0.057	0.0655	0.0901	0.0575	–
MGESLFKGPRDYNPISSSICHLTNESDGHTTSLYGIGFGPFIITNKHLFRRNNGTLVVQSLHGKFKVKDTTTLQQHLVDGRDMIIIRMPKDFPPFPQKLKFREPQREERICLVTTNFQTKSMSSMVSDTSCTFPSGDGIFWKHWIQTKDGQCGSPLVSTRDGFIVGIHSASNFTNTNNYFTSVPKNFMELLTNQEAQQWVSGWRLNADSVLWGGHKVFMVKPEEPFQPVKEATQL [V64K]	0.0556	0.076	0.0651	0.115	0.0654	0.117	0.0606	0.0776	0.0685	0.0769	0.0839	0.0623	–	0.0859	–	0.054	0.0588
MGESLFKGPRDYNPISSSICHLTNESDGHTTSLYGIGFGPFIITNKHLFRRNNGTLVVQSLHGVFKVKDTTTLQQHLVDGRDMIIIRMPKDFPPFPQKLKFREPQREERICLVTTNFQTKSMSSMVSDTSCTFPSGDGIFWKHWIQTKDGQCGSPLVSTRDGFIVGIHSASNFTNTNNYFTSVPKNFMELLTNQEAQQWVSGWRLNASSVLWGGHKVFMVKPEEPFQPVKEATQL [D208S]	0.0606	–	0.0516	–	0.0527	–	0.0834	–	–	0.0947	0.0791	–	0.0713	–	–	0.0366	0.0824
MGESLFKGPRDYNPISSSICHLTNESDGHTTSLYGIGFGPFIITNKHLFRRNNGTLVVQSLHGVFKVKDTTTLQQHLVDGRDMIIIRMPKDFPPFPQKLKFREPQREERICLVTTNFQTKSMSSMVSDTSCTFPSGDGIFWKHWIQTKDGQCGSPLVSTRDGFIVGIHSASNFTNTNNYFTSVPKNFMELLTNQEAQQWVSGWRLNAKSVLWGGHKVFMVKPEEPFQPVKEATQL [D208K]	0.0526	–	–	–	0.0614	–	–	–	–	–	–	0.0812	–	–	0.082	–	–
MGESLFKGPRDYNPISSSICHLTNESDGHTTSLYGIGFGPFIIFNKHLFRRNNGTLVVQSLHGVFKVKDTTTLQQHLVDGRDMIIIRMPKDFPPFPQKLKFREPQREERICLVTTNFQTKSMSSMVSDTSCTFPSGDGIFWKHWIQTKDGQCGSPLVSTRDGFIVGIHSASNFTNTNNYFTSVPKNFMELLTNQEAQQWVSGWRLNADSVLWGGHKVFMVKPEEPFQPVKEATQL [T44F]	0.0569	0.0519	0.051	0.0458	0.0246	–	0.0603	0.0396	0.076	–	–	0.0278	–	–	0.0512	–	0.0436
MGESLFKGPRDYNPISSSICHLTNESDGHTTSLYGIGFGPFIITNKHLFRRNNGTLVVQSLHGVFKVKDTTTLQQHLVDGRDMIIIRMPKDFPPFPQKLKFREPQREERICLVTTNFQTKSMSSMVSDTSCTFPSGDGIFWKHWIQTKDGQCGSPLVSTIDGFIVGIHSASNFTNTNNYFTSVPKNFMELLTNQEAQQWVSGWRLNADSVLWGGHKVFMVKPEEPFQPVKEATQL [R160I]	0.0568	0.0759	0.0448	0.107	0.0643	–	0.0637	0.0805	–	0.0491	0.0675	0.077	0.0652	–	0.116	0.0671	0.0723
MGESLFKGPRDYNPISSSICHLTNESDGHTTSLYGIGFGPFIITNKHLFRRNNGTLVVQSLHGVFKVKDTTTLQQHLVDGRDMIIIRMPKDFPPFPQKLKFREPQREERICLVTTNFQTKSMSSMVSDTSCTFPSGDGIFWKHWIQTKDGQVGSPLVSTRDGFIVGIHSASNFTNTNNYFTSVPKNFMELLTNQEAQQWVSGWRLNADSVLWGGHKVFMVKPEEPFQPVKEATQL [C152V]	0.0536	0.0566	0.0609	0.0586	0.0665	–	–	0.0526	0.0621	–	0.0557	0.0622	0.06	–	0.0599	0.0629	0.0628
MGESLFKGPRDYNPISSSICHLTNESDGHTTSLYGIGFGPFIITNKHLFRRNNGTLVVQSLHGVFKVKDTTTLQQHLVDGRDMIIIRMPKDFPPFPQKLKFREPQREERICLVTTNFQTKSMSSMVSDTSCTFPSGDGIFWKHWIQTKDGQCGSPLVSTRDGFIVGIHSASNFTNTNNYFTSVPKNFMELLTNQEAQQWVSGWRLNADSVLWGGHKVFMVKPEEPFQPVKEGTQL [A232G]	0.0659	0.0672	–	–	–	–	0.0681	0.0823	–	0.0749	0.0773	0.0791	0.0497	–	–	–	–
MGESLFKGPRDYNPISSSICHLTNESDGHTTSLYGIGFGPFIITNKHLFRRNNGTLVVQSLHGVFKVKDTTTLQQHLVDGRDMIIIRMPKDFPPFPQKLKFREPQREERICLVTTNFQTKSMSSMVSDTSCTFPSGDGIFWKHVIQTKDGQCGSPLVSTRDGFIVGIHSASNFTNTNNYFTSVPKNFMELLTNQEAQQWVSGWRLNADSVLWGGHKVFMVKPEEPFQPVKEATQL [W144V]	0.0583	0.0659	0.0747	0.0913	0.0611	–	0.0535	0.064	0.0722	–	0.0513	0.0639	0.0629	–	–	0.0655	0.0803
MGESLFKGPRDYNPISSSICHLTNESDGHTTSLYGIGFGPFIITNKHLFRRNNGTLVVQSLHGVFKVKDTTTLQQHLVDGRDMIIIRMPKDFPPFPQKLKFREPQREERICLVTTNFQTKSMSSMVSDTSCTFPSGDGIFWKHCIQTKDGQCGSPLVSTRDGFIVGIHSASNFTNTNNYFTSVPKNFMELLTNQEAQQWVSGWRLNADSVLWGGHKVFMVKPEEPFQPVKEATQL [W144C]	0.0661	0.071	–	0.0716	0.0679	0.0696	0.0626	0.0713	0.068	–	0.0678	0.0708	0.0633	0.0985	0.112	0.0612	0.0595
MGESLFKGPRDYNPISSSICHLTNESDGHTTSLYGIGFGPFIITNKHLFRRNNGTYVVQSLHGVFKVKDTTTLQQHLVDGRDMIIIRMPKDFPPFPQKLKFREPQREERICLVTTNFQTKSMSSMVSDTSCTFPSGDGIFWKHWIQTKDGQCGSPLVSTRDGFIVGIHSASNFTNTNNYFTSVPKNFMELLTNQEAQQWVSGWRLNADSVLWGGHKVFMVKPEEPFQPVKEATQL [L56Y]	0.0715	0.058	0.0646	–	–	–	0.0594	–	0.0652	0.053	0.0647	0.0621	0.0496	0.0524	–	–	–
MGESLFKGPRDYNPISSSICHLTNESDGHTTSLYGIGFGPFIITNKHLFRRNNGTLVVQSLHGVFKVKDTTTLQQHLVDGRDMIIIRMPKDFPPFPQKLKFREPQREERICLVTTNFQTKSMSSMVSDTSCTFPSGDGIRWKHWIQTKDGQCGSPLVSTRDGFIVGIHSASNFTNTNNYFTSVPKNFMELLTNQEAQQWVSGWRLNADSVLWGGHKVFMVKPEEPFQPVKEATQL [F140R]	0.0446	0.0499	0.0634	0.0733	0.0507	0.0673	0.0614	0.0629	0.0518	0.0557	0.0606	0.0612	0.0638	0.0674	0.0749	0.0514	0.0625
MGESLFKGPRDYNPISSSICHLTNESDGHTTSLYGIGFGPFIITNKHLFRRNNGTLVVQSLHGVFKVKDTTTLQQHLVDGRDMIIIRDPKDFPPFPQKLKFREPQREERICLVTTNFQTKSMSSMVSDTSCTFPSGDGIFWKHWIQTKDGQCGSPLVSTRDGFIVGIHSASNFTNTNNYFTSVPKNFMELLTNQEAQQWVSGWRLNADSVLWGGHKVFMVKPEEPFQPVKEATQL [M88D]	0.0456	0.0429	0.0528	0.0538	0.0604	–	–	0.0443	0.0374	–	–	0.0319	0.0523	–	–	–	–
MGESLFKGPRDYNPISSSICHLTNESDGHTTSLYGIGFGPFIITNKHLFRRNNGTLVVQSLHGVFKVKDTTTLQQHLVDGRDMIIIRQPKDFPPFPQKLKFREPQREERICLVTTNFQTKSMSSMVSDTSCTFPSGDGIFWKHWIQTKDGQCGSPLVSTRDGFIVGIHSASNFTNTNNYFTSVPKNFMELLTNQEAQQWVSGWRLNADSVLWGGHKVFMVKPEEPFQPVKEATQL [M88Q]	0.0236	0.0665	0.0522	–	0.0458	0.116	0.0603	0.0688	–	–	0.0859	0.0639	0.0886	–	0.113	–	0.122
